Hit rate of the full screen: of about 310,000 compounds, about 2,200 (0.71%) showed an effect of 50% or more. The effect is printed as a negative number. This is one part of the list.
Target: human ether-à-go-go-related gene (hERG) potassium channel (human, UniProt Q12809)
Experiment: primary screen, population patch clamp on CHO cells stably expressing hERG

Chain of human ether-à-go-go-related gene (hERG) potassium channel (Q12809 whole entry, looked up): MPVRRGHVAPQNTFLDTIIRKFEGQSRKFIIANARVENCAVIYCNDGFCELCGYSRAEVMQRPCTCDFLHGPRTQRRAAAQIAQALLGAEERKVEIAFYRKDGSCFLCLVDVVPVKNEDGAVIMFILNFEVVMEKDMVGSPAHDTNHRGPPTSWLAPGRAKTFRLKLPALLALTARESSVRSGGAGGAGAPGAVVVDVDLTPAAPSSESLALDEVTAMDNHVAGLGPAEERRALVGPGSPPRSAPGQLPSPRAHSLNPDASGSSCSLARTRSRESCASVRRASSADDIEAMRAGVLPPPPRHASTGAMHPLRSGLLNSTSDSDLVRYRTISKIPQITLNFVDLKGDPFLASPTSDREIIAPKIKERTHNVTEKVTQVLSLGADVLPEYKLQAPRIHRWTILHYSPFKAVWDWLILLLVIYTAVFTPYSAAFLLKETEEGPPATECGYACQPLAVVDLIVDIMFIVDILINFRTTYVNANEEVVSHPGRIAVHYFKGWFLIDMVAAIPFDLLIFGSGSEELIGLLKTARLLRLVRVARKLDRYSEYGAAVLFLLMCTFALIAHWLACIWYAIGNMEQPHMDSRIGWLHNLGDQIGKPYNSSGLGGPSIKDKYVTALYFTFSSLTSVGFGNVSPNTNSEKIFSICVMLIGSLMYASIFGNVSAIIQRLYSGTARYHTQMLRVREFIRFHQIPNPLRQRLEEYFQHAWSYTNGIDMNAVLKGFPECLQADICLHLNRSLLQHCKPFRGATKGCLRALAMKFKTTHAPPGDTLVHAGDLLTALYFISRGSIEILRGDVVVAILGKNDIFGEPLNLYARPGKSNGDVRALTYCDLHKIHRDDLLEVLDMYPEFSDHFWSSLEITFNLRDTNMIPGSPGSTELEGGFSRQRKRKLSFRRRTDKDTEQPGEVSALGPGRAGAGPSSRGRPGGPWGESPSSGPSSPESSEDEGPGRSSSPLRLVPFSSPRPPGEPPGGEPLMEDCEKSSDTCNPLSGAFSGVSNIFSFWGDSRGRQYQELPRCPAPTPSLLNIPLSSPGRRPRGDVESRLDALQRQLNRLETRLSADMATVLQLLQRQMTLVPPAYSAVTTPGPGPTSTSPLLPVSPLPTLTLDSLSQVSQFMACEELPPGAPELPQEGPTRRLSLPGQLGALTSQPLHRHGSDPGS

Compound | hERG current change (%, negative = inhibition) at 1uM [%]
Cc1c(C)c2ccc(OCC(=O)NC(Cc3ccc(Cl)cc3)C(=O)O)cc2oc1=O (centres unmarked) | 9.54
Cc1cccc2[nH]c(CN(C)Cc3nc(CC4CC4)no3)nc12 | 4.77
C#CCOCCOCCOCCNc1nc(N2CCN(C(=O)[C@H]([C@@H](C)CC)n3cc(CCCC[NH3+])nn3)CC2)nc(N2CCN(C(=O)[C@H](C)n3cc(CCC(=O)O)nn3)CC2)n1.[Cl-] | 11
Nc1cc(C(=O)OCC(=O)N2CCCC2=O)ccc1Cl | 13.8
CC(=O)c1sccc1NC(=O)c1ccccc1C(=O)O | 15.8
COc1cccc(CC(=O)OCC(=O)Nc2nnc(-c3ccccc3)o2)c1 | 10.2
CCOc1ccc(NC(=O)CN(C)C(=O)c2ccc3nc(CC)c(CC)nc3c2)cc1OCC | -8.18
NC(=O)CC(NC(=O)Cc1cccc2ccccc12)c1ccc(N2CCCCCC2)c([N+](=O)[O-])c1 (centres unmarked) | 8.91
NC1=NC(c2ccccc2Cl)n2c(nc3ccccc32)N1 (centres unmarked) | -0.85
CCOC(=O)Cc1csc(NC(=O)/C=C\c2ccccc2Cl)n1 | 7.16
O=C(N/N=C/c1ccc(N2CCOCC2)cc1)c1cccs1 | 13.2
C/C(=N/NC(=O)CC(=O)N/N=C(\C)c1ccc([N+](=O)[O-])cc1)c1ccc([N+](=O)[O-])cc1 | 9.94
CCn1nnc(NC(=O)c2ccc(-c3ccc(Cl)cc3)o2)n1 | -15.1
Cn1c(=O)n(-c2ccccc2)c(=O)c2c3c(sc21)COC(C)(C)C3 | 8.65
O=C1c2c(O)cc(O)cc2O[C@@]12c1c(cc(O)c3c1O[C@H](c1ccc(O)cc1)[C@@H](O)C3)O[C@@H]2c1ccc(O)cc1 | 20.7
COc1ccc(Oc2nccc(-c3ccc(F)cc3)c2C#N)cc1 | 5.58
CCN(CC(=O)NCc1cccs1)C(=O)/C=C/c1cc(Br)ccc1OC(F)F | -3.64
CCOc1cc2[nH]c(=S)n(Cc3ccc(C(=O)NCC(OC)OC)cc3)c(=O)c2cc1OCC | 6.97
O=S(=O)(NCc1ccc(F)cc1)c1ccccc1Br | 3.72
COc1ccc(C(=O)Oc2ccc3c(C)cc(=O)oc3c2C(C)=O)cc1 | 0.652
O=C(CSc1nnnn1-c1ccccc1)Nc1nsc(-c2ccccc2)n1 | -1.62
NNC(=O)CCCNc1ncc(C(F)(F)F)cc1Cl | 6.83

Compound | hERG current change (%, negative = inhibition) at 1uM [%]
CC(C)c1nnc(NC(=O)C2CCN(C(=O)Nc3ccc(Cl)cc3)CC2)s1 | 12.1
CCc1ccccc1NC(=O)CNCC(=O)Nc1ccccc1CC | 11.1
O=C(N/N=C/c1ccc(Br)cc1)c1cc[n+](Cc2ccccc2)cc1.[Cl-] | 7.9
COc1ccc(OC)c(C(=O)c2coc3ccc(O)cc23)c1 | 1.49
COc1ccccc1-c1nnc(-c2ccc(C)cc2)o1 | -3.53
COc1ccc(C2CC(c3ccccc3)=NN2C(=O)CSc2ncn[nH]2)cc1 (centres unmarked) | 0.96
Oc1ccc(Br)cc1CNn1cnnc1 | 16.9
COC(=O)CSc1nnc2n(-c3ccc(OC)cc3)c(=O)c3c4c(sc3n12)CCCCC4 | 10.9
CCCOC(=O)Nc1sc2c(c1C(=O)OCC)CCC2 | -7.31
CCC(C)N(C(=O)COC(=O)Cc1n[nH]c(=O)c2ccccc12)C1CCS(=O)(=O)C1 (centres unmarked) | 13.3
N#Cc1c(NC(=O)CCCN2C(=O)c3ccccc3C2=O)oc(-c2ccccc2)c1-c1ccccc1 | -0.65
CCOc1ccc2nc(SCC(=O)N3CCCc4ccccc43)sc2c1 | -6.66
COc1ccc2nc(NC(=O)C3COc4ccccc4O3)sc2c1 (centres unmarked) | 11.2
CC1=CC(C)(C)NC(=S)N1c1ccc2ccccc2c1 | 0.181
Cc1ccc(S(=O)(=O)N2CCN(c3cnn(-c4ccccc4)c(=O)c3Cl)CC2)cc1 | 5.42
C#CCNc1c2c(nc3nnnn13)CCCC2 | 1.91
CCc1ccccc1NC(=O)CCS(=O)(=O)c1ccc(Br)cc1 | 12.9
O=C(CCCn1c(=O)c2cccn2c2cccnc21)NCCc1ccc(Cl)cc1 | 3.34
Cc1ccc2nc(-c3ccccc3)cc(C(=O)N3CCc4ccccc4C3)c2c1 | 7.62
CC(C)(C)c1ccc(C(=O)NNc2ccc(F)cc2F)cc1 | 11.9
O=C(NCCNc1ccc([N+](=O)[O-])cc1)c1cc(F)c(F)cc1Cl | -8.81
CC1(C)C(C=C(Cl)Cl)C1C(=O)N1CCN(Cc2ccccc2)CC1 (centres unmarked) | -12.2

Compound | hERG current change (%, negative = inhibition) at 1uM [%]
O=C(O)c1ccccc1N(c1ccccc1)c1ccccc1 | 11.3
CCOC(=O)C1(C)NC(c2ccco2)C2C(=O)N(CC)C(=O)C21 (centres unmarked) | 12.5
O=C(COC(=O)C1CCN(C(=O)c2ccc(Cl)cc2)CC1)Nc1ccccc1F | -11.5
Cc1cc(S(=O)(=O)c2cc3ccc(O)c(C)c3oc2=O)ccc1F | 14.4
Cc1ccc(C)c(C(=O)CCC(=O)Nc2cccnc2)c1 | 12.1
CCCNC(=O)C(Cc1ccccc1C)NC(=O)c1ccc(C(F)(F)F)cc1 (centres unmarked) | 17
C/C(=C1\SC(N2CCOCC2)=NC1=O)c1ccc(C)cc1 | 5.49
COCCN(Cc1nc(-c2ccc(C(F)(F)F)cc2)no1)C(C)C | 7.53
CN(CCOC(=O)C1c2ccccc2Oc2ccccc21)C(C)(C)C.Cl | 5.23
O=C(CN(C(=O)Cn1nnc(-c2ccc(F)cc2)n1)c1cccc(F)c1)NC1CCCC1 | 19
COC(=O)c1ccc2c(c1)N(C)C(=O)CS2 | -4.86
CCc1ccccc1NC(=O)CNC(=O)c1cn(Cc2ccccc2)nc1-c1cccnc1 | 6.27
O=C(Nc1nccs1)c1nc[nH]c1C(=O)NCc1ccccc1 | 6.13
COc1cc(C(=O)Oc2ccc(C(=S)N3CCOCC3)cc2)cc(OC)c1OC | 13.8
COCCNC(=O)c1ccc(NC(C)=O)cc1 | 13.5
CN(C(=O)COC(=O)CNC(=O)c1ccc(C(C)(C)C)cc1)c1c(N)n(Cc2ccccc2)c(=O)[nH]c1=O | 6.24
Cc1ccc(CN2CCc3[nH]c(=O)[nH]c(=O)c3C2)cc1 | 15.8
Oc1c(C(c2ccccc2)N2CCCCC2)sc2ncnn12 (centres unmarked) | 1.15
CC1(C)Oc2ccc3ccc(=O)oc3c2/C(=C/Nc2ccccn2)C1=O | 17.4
O=c1oc2ccccc2n1CSC1=NCCS1 | -0.777
CCOC(=O)COc1nc(-c2ccc(Cl)cc2)cc(-c2ccco2)c1C#N | 5.01
O=C(NC1CCS(=O)(=O)C1)c1ccccc1C(=O)c1ccccc1 (centres unmarked) | 10.6

Compound | hERG current change (%, negative = inhibition) at 1uM [%]
C=CCOc1c(/C=N\NC(N)=O)cccc1OC | 11.5
COC(=O)c1ccc(NC(=O)COC(=O)c2nc3nccc(C)n3n2)cc1 | 8.07
Cc1cccc(CN2CCN(C(=O)Cc3ccccc3)CC2)c1.O=C(O)C(=O)O | 6.74
COc1ccc(S(=O)(=O)N2CCN(Cc3ccc4c(c3)OCO4)CC2)cc1 | 7.9
Clc1cc(-c2ccccc2)nc(-c2ccccc2)n1 | 0.176
COc1ccc(/C=C(\NC(=O)c2ccccc2)C(=O)NCc2ccco2)cc1 | 13.7
Cc1ccccc1C(=O)N(Cc1cccs1)C1CCS(=O)(=O)C1 (centres unmarked) | 22.2
CCOC(=O)C1CCN(C(c2cc(OC)c(OC)c(OC)c2)c2sc3nc(C)nn3c2O)CC1 (centres unmarked) | 8.91
Cc1onc(-c2ccccc2)c1C(=O)NCc1ccc2c(c1)OCO2 | 11.3
Cc1ccc(C)c(OCc2cc(C(=O)N3CCc4sccc4C3)no2)c1 | 16.5
CCN(CC(=O)Nc1c(F)cccc1F)C(=O)C1CC(=O)N(CCc2ccc(OC)c(OC)c2)C1 (centres unmarked) | 14
CC(C)(C)c1ccc(S(=O)(=O)n2c(CN3CCOCC3)nc3ccccc32)cc1 | 10.3
CC(C)[C@H](NC(=O)c1ccccc1)C(=O)OCC(=O)c1ccccc1F | 7.34
O=C(c1ccc2nc(N3CCOCC3)sc2c1)N1CCN(c2ccc(Cl)cc2)CC1 | 1.9
COCCCN1C(=O)c2ccc(C(=O)Nc3cccc(OC)c3)cc2C1=O | 1.72
Nc1nc(NCC(=O)O)nc(NC2CCCCC2)c1[N+](=O)[O-] | 10.2
OCCC#Cc1ccc(CN2CCN(CCc3ccccc3)C(CCO)C2)cc1 (centres unmarked) | 6.56
CCN(CC)C(=O)C1CCCN(Cc2sccc2C)C1 (centres unmarked) | 15.1
Cc1[nH]c2ccccc2c1/C=N/Nc1ccccc1[N+](=O)[O-] | 13.6
CC#CP(=O)(OCC)C(O)(c1ccccc1)C(F)(F)F (centres unmarked) | 5.8

Source: article PMC4336329 (PLoS ONE, 2015)
